{
  "source": "paper PMC12136788",
  "binders": {"B1": {"name": "chr10:99876058:99876159:-|3pUTR|ENSG00000107554|msi1|total|mutant (ssRNA)", "RNA": "GGGAGUUCUACAGUCCGACGAUCUUGAGCCUAAUGGAAGACUGGAUGUCUUUCUUCUUCAUCCAAGCACCCUAAUGACUGUUCCGUUACAUCCACCGAUGCAGACAACAUAACACCUGUGACUUACUUGAAUUGGGAUAAGCCCAACAGAGGAUUGAGCAUCA"}, "B2": {"name": "chr4:127885990:127886091:+|CDS|ENSG00000142731|msi1|total|mutant (ssRNA)", "RNA": "GGGAGUUCUACAGUCCGACGAUCAUUACUUAUCGGGAGACCACCCUUCGACACUGACACAGUCAAGAACACAUUAAAUAAAGCCGUAUUGGCAGAUUAUGAAAUGCCAUCUUUUUUGUCAACCGAGGCCAAGGACCUUAUUCACAACAGAGGAUUGAGCAUCA"}, "B3": {"name": "chr18:9257137:9257239:+|CDS|ENSG00000101745|unk|FALSE|bound_elsewhere (ssRNA)", "RNA": "GGGAGUUCUACAGUCCGACGAUCUCUUAGGUCAUCUUCUGUAGAAGAUGUUAAACUAAUUAUAAGCGAGGGGAGACCUACCAUAGAAGUUCGAAGAUGUAGCAUGCCUUCUGUCAUUUGUGAACAUACCAAACAAUUCCAAACCAACAGAGGAUUGAGCAUCA"}, "B4": {"name": "chr12:122508217:122508450:-|three_prime_utr|ENSG00000111011|control|control|control (ssRNA)", "RNA": "GGGAGUUCUACAGUCCGACGAUCAGGUUCUGUUCUCAAUGUUGCUGCCCUGUUGGCAUCAGGAACACAAGUAACACCUCAGAUAGCCAUGGCAGCUCAGAUGGCAGCCCUGCAAGCUAAAGCUUUGGCAGAGACAGGAAUAGCCAACAGAGGAUUGAGCAUCA"}, "B5": {"name": "ENSG00000124766:be:win_3651|3pUTR|ENSG00000124766|bound_else_gene|NA|bound_elsewhere_windowed (ssRNA)", "RNA": "GGGAGUUCUACAGUCCGACGAUCUCGCUAAAUAUAAUUGUUUUAGUCUUAUGGCAUGAUGAUAGCAUAUGUGUUCAGGUUUAUAGCUGUUGUGUUUAAAAAUUGAAAAAAGUGGAAAACAUCUUUGUACAUUUAAGUCUGUAUCAACAGAGGAUUGAGCAUCA"}, "B6": {"name": "chr15:58589816:58589917:-|3pUTR|ENSG00000137845|unk|total|mutant (ssRNA)", "RNA": "GGGAGUUCUACAGUCCGACGAUCAUUCAUUUGCUGAAGAGCUGGCUUGUACUUUGGCAGGUGUCAUACUUGGUUAUUCUCCUCCGGAUAUUGGCCCAACAAUCUGGGAGUUGUGAAAGGCGCUUCGCUUUUCAGACCUGGGCGCAACAGAGGAUUGAGCAUCA"}, "B7": {"name": "ENSG00000013306:stop:overlap|stop_codon|ENSG00000013306|stop_codon|NA|stop_codon (ssRNA)", "RNA": "GGGAGUUCUACAGUCCGACGAUCGUCCCCACCUCGGCCCAAACCCAGUCAGUCCCAGCUCCCAGCCCCAACCUCUGCCAGCCUAGGGAUAGGGGGGUGUUCUAGGUCCCCAGACCUGGGACAGCAGCCCUGUACUGGUUCAACCAACAGAGGAUUGAGCAUCA"}, "B8": {"name": "ENSG00000138760:stop:overlap|stop_codon|ENSG00000138760|stop_codon|NA|stop_codon (ssRNA)", "RNA": "GGGAGUUCUACAGUCCGACGAUCACCAAUCUGUUGGAGACCCUAAAAUUGACUUAAUUAGAACAUUAAAUAUUCCUGUAUUGUAGGAGAGAGUGGAUGGAGGUGCUUUGGAGGGGAUGCUGCUGUCUUAAUAUACCUCUGCUCCAACAGAGGAUUGAGCAUCA"}, "B9": {"name": "chr4:102887774:102887875:+|3pUTR|ENSG00000145354|msi1|total|mutant (ssRNA)", "RNA": "GGGAGUUCUACAGUCCGACGAUCUUGGUUUUGAUAAUCUGAAGUGUUUUUUUCUCGUUUUGGCCUUCCAAACUGCAUUUGGUCCGGUGAAUUAAGAAAAAUAUUGCCAUCAAGAAUUACUUGUGUUUUCACAGAGACCGACUCCAACAGAGGAUUGAGCAUCA"}, "B10": {"name": "chr2:24000049:24000165:+|3pUTR|ENSG00000173960|unk|total|mutant (ssRNA)", "RNA": "GGGAGUUCUACAGUCCGACGAUCGCCGCAUAUGACUGGAAACUAUAUUCAGUGCACUUUCUCCAAAAGACUACCCAGAAAAACCGACUUAUUUUCAAAUACCAGUUAUCAAGAUAUAUUAAACCGCUGUAUUGUUCCGAAUCUCAACAGAGGAUUGAGCAUCA"}, "B11": {"name": "chr15:50499066:50499164:+|CDS_3pUTR|ENSG00000138592|msi1_unk|FALSE|overlapping (ssRNA)", "RNA": "GGGAGUUCUACAGUCCGACGAUCUACUUCAUUGGGACCACGAGUAACUGAUGUAGCCACAUAAGGAGACAUAGGUUAUAAACUAGUUAUCUUUUAAAAGGCUCAGCAACACAACUCUUGAAAUGCUUAUCAGGAUAAUGGUAGCAACAGAGGAUUGAGCAUCA"}, "B12": {"name": "chrX:102369585:102369736:-|CDS|ENSG00000269437|control|control|control (ssRNA)", "RNA": "GGGAGUUCUACAGUCCGACGAUCUGCGAAAGAAGAAUGAAAUGGCAUAGUGAAGACGAAAUCCGUAUUACCACGUGGAGAAAUAGAAAACCUCCGGAGAGAAAAAUGAGUCAGAACACACAGGAUGGAUACACAAGGAACUGGCAACAGAGGAUUGAGCAUCA"}, "B13": {"name": "chr3:64018827:64018930:-|CDS|ENSG00000163636|unk|total|mutant (ssRNA)", "RNA": "GGGAGUUCUACAGUCCGACGAUCUGAACUCAUGGAUUAUAAAACAUUUGUGACUUAUACUGUCUAUGUCAGUAUGAUUGCCUCCGAAAGACCAGAUCUCAGGGAAAAGGUAAUGACCAAACUUUAAUACUCAAAUUUAAAGACCAACAGAGGAUUGAGCAUCA"}, "B14": {"name": "chr7:77749912:77750028:+|CDS|ENSG00000187257|unk|FALSE|unique (ssRNA)", "RNA": "GGGAGUUCUACAGUCCGACGAUCUGCAGCUUUCUACGUGAUGGGUAUUGUUCAUGGGGCAGCUACUUAUUUACCUGACUUUUUAGACUAUUUUUCAUUUAAUUUUCCCAAUUCACCAGUGAAAAUGGAGAUAUUGGGAAAGAACAACAGAGGAUUGAGCAUCA"}},
  "note": "The other results are listed elsewhere or left out.",
  "data": [
    {"target": "T1, UNK ZnF1-6 (called full-length) (human, UniProt Q9C0B0 30-357)", "T1 sequence": "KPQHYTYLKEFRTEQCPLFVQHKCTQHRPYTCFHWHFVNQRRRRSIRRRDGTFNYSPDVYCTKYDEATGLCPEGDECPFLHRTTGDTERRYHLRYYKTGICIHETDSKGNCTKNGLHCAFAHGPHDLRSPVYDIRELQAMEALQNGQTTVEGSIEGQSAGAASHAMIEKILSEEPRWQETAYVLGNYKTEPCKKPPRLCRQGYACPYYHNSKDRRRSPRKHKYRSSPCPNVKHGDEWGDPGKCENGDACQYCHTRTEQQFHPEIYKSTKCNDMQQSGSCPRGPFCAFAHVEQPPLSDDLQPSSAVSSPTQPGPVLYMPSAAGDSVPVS", "assay": "nsRBNS (natural sequence RNA bind-n-seq); RBNS binding buffer (assumed for nsRBNS): 25 mM Tris pH 7.5, 150 mM KCl, 3 mM MgCl2, 0.01% Triton X-100, 500 ug/ml BSA, 20 U/ml SUPERase-In, 4 C; UNK is unkempt and MSI1 is Musashi-1; names of the RNAs are library labels; protein concentration not given here; high values mean tight binding", "units": {"binding signal": "enrichment R"}, "values": [
      {"binder": "B1", "binding signal": 0.501},
      {"binder": "B2", "binding signal": 0.501},
      {"binder": "B3", "binding signal": 1.06},
      {"binder": "B4", "binding signal": 0.573},
      {"binder": "B5", "binding signal": 0.871},
      {"binder": "B6", "binding signal": 0.6},
      {"binder": "B7", "binding signal": 0.737},
      {"binder": "B8", "binding signal": 0.363},
      {"binder": "B9", "binding signal": 0.367},
      {"binder": "B10", "binding signal": 0.877},
      {"binder": "B11", "binding signal": 0.742},
      {"binder": "B12", "binding signal": 0.879},
      {"binder": "B13", "binding signal": 0.469},
      {"binder": "B14", "binding signal": 1.83}
    ]}
  ]
}
